Results from US20130122005A1, “ANTICANCER COMBINATION THERAPY” (priority 2011, published 2013).

Molecular target: IGF bioactivity in human serum (pooled from healthy donors, 20%)
Assay: cell-based or functional assay

B1: antibody 60833 (antibody, human IgG1, lambda)
heavy: QVELVESGGGLVQPGGSLRLSCAASGFTFTSYWMSWVRQAPGKGLELVSSITSYGSFTYYADSVKGRFTISRDNSKNTLYLQMNSLRAEDTAVYYCARNMYTHFDSWGQGTLVTVSS[human IgG1 constant region not printed]
light: DIVLTQPPSVSGAPGQRVTISCSGSSSNIGSNSVSWYQQLPGTAPKLLIYDNSKRPSGVPDRFSGSKSGTSASLAITGLQSEDEADYYCQSRDTYGYYWVFGGGTKLTVLGQPKAAPSVTLFPPSSEELQANKATLVCLISDFYPGAVTVAWKGDSSPVKAGVETTTPSKQSNNKYAASSYLSLTPEQWKSHRSYSCQVTHEGSTVEKTVAPTECS
- % Remaining Phosphorylation at 15 µg/mL (100 nM) Inhibitor, human serum (20%) induced IGF-1R phosphorylation: 5%
